Consider 13 molecules from the supplement of paper PMC4604168 (melanoma cell lines).

Molecules are shown by their SMILES. The list shows a part of the results. Repeats are few or missing, and single values can be far off.

Among the test systems are A101D; A2058; A375.
Test in all cases: cell count relative to DMSO control; melanoma cells; higher = more viable cells
Holding throughout (conditions): library dose: standard library concentration; 72 h
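Note: cells treated in 1,536-well plates, then fixed and DAPI-stained, with nuclei counted from automated high-throughput microscope images.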

On to `O=C(O)[C@@H]1[O][Sb](=[O])([O][Sb]2(=[O])[O][C@H]([C@H](O)CO)[C@H](O)[C@H](C(=O)O)[O]2)[O][C@H]([C@H](O)CO)[C@@H]1O` (some centres undefined) [stibogluconate] + C=CCNC1=C2C[C@@H](C)C[C@H](OC)[C@H](O)[C@@H](C)/C=C(\C)[C@H](OC(N)=O)[C@@H](OC)/C=C\C=C(/C)C(=O)NC(=CC1=O)C2=O [Tanespimycin] (first compound 10 µM, partner dose 0.01 µM), for which the figures for the cell count in the experiment on A101D, in the experiment on A2058 and with A375 were 76.1%, 82.3% and 128%, respectively.
In the case of `O=C(O)[C@@H]1[O][Sb](=[O])([O][Sb]2(=[O])[O][C@H]([C@H](O)CO)[C@H](O)[C@H](C(=O)O)[O]2)[O][C@H]([C@H](O)CO)[C@@H]1O` (some centres undefined) [stibogluconate] + OCCn1cc(-c2cnc3nnn(Cc4ccc5ncccc5c4)c3n2)cn1 [PF04217903] (first compound 10 µM, partner dose 5 µM), the cell count in the experiment on A101D worked out at 66%; with A2058 it was 80.2%; with A375 it was 114%.
On to `O=C(Nc1cc(C(F)(F)F)cc(C(F)(F)F)c1)c1cc(Cl)ccc1O` + NC(=O)c1ccc(N(C(N)=O)c2c(F)cccc2F)nc1-c1ccc(F)cc1F [VX702] (first compound 0.08 µM, partner dose 2 µM), for which the cell count with A101D turned out to be 122%; in the experiment with A2058, 95.4%; in the experiment with A375 it was 92.5%.
As for `O=C(Nc1cc(C(F)(F)F)cc(C(F)(F)F)c1)c1cc(Cl)ccc1O` + Nc1nc(F)nc2c1ncn2[C@@H]1O[C@H](CO)[C@@H](O)[C@@H]1O [fludarabine] (first compound 0.08 µM, partner dose 1 µM), the cell count in the experiment with A101D amounted to 110%; in the experiment with A2058, 98.4%; with A375 it was 40.5%.
For the molecule `O=C(Nc1cc(C(F)(F)F)cc(C(F)(F)F)c1)c1cc(Cl)ccc1O` + Nc1ncn([C@H]2C[C@H](O)[C@@H](CO)O2)c(=O)n1 [decitabine] (first compound 0.08 µM, partner dose 0.5 µM), the cell count in the experiment on A101D was determined as 87.8%; with A2058, 56.9%; in the experiment with A375, 99.1%.
The matching figures for `O=C(Nc1cc(C(F)(F)F)cc(C(F)(F)F)c1)c1cc(Cl)ccc1O` + CN(C)S(=O)(=O)c1ccc2c(c1)/C(=C/c1cc3c([nH]1)CCCC3)C(=O)N2 [SU6656] (first compound 0.08 µM, partner dose 2 µM): 58.3%, 88.1% and 167%.
As for `Cn1nnc2c(C(N)=O)ncn2c1=O` [temozolomide] + CC(C)(C)c1cnc(CSc2cnc(NC(=O)C3CCNCC3)s2)o1 [SNS-032] (first compound 10 µM, partner dose 0.05 µM), the cell count in the experiment on A101D stood at 74.6%; with A2058, 49.5%; in the experiment on A375, 106%.
For `O=C(O)[C@@H]1[O][Sb](=[O])([O][Sb]2(=[O])[O][C@H]([C@H](O)CO)[C@H](O)[C@H](C(=O)O)[O]2)[O][C@H]([C@H](O)CO)[C@@H]1O` (some centres undefined) [stibogluconate] + CC1(C)NC(=O)N(c2ccc([N+](=O)[O-])c(C(F)(F)F)c2)C1=O [nilutamide] (first compound 10 µM, partner dose 5 µM), the cell count with A101D was found to be 123%; in the experiment on A2058, 115%; with A375 it was 118%.
As for `Cn1nnc2c(C(N)=O)ncn2c1=O` [temozolomide] + Cc1ccc(NC(=O)c2cccc(N(C)C)c2)cc1NC(=O)c1ccc(O)cc1 [ZM336372] (first compound 10 µM, partner dose 10 µM), the cell count in the experiment on A101D turned out to be 72.2%; in the experiment with A2058, 42.2%; with A375, 112%.
Regarding `O=C(Nc1cc(C(F)(F)F)cc(C(F)(F)F)c1)c1cc(Cl)ccc1O` + Cn1c(Nc2ccc(C(F)(F)F)cc2)nc2cc(Oc3ccnc(-c4ncc(C(F)(F)F)[nH]4)c3)ccc21 [CHIR265] (first compound 0.08 µM, partner dose 0.4 µM), the cell count is 60% with A101D, 65.8% with A2058 and 62.2% in the experiment with A375.
With `Cc1cc(N2CCOCC2)cc2[nH]c(-c3c(NC[C@@H](O)c4cccc(Cl)c4)cc[nH]c3=O)nc12` + Oc1cc(-c2nc(-c3ccccc3)[nH]c2-c2ccncc2)ccc1Cl [L779450] (first compound 1 µM, partner dose 1 µM), the results for the cell count in the experiment on A101D, in the experiment with A2058 and in the experiment with A375 were 59.5%, 78.7% and 70%, respectively.
The matching figures for `O=C(O)[C@@H]1[O][Sb](=[O])([O][Sb]2(=[O])[O][C@H]([C@H](O)CO)[C@H](O)[C@H](C(=O)O)[O]2)[O][C@H]([C@H](O)CO)[C@@H]1O` (some centres undefined) [stibogluconate] + C=C(c1ccc(C(=O)O)cc1)c1cc2c(cc1C)C(C)(C)CCC2(C)C [Bexarotene] (first compound 10 µM, partner dose 10 µM): 100%, 100% and 102%.
For `Cn1nnc2c(C(N)=O)ncn2c1=O` [temozolomide] + Cc1cc([N+](=O)[O-])ccc1NS(=O)(=O)c1cc(Cl)ccc1Cl [FH535] (first compound 10 µM, partner dose 5 µM), the cell count was found to be 86.6% in the experiment on A101D, 42.5% with A2058 and 72.7% with A375.
